Measured values taken from PubChem BioAssay AID485344 (National Center for Advancing Translational Sciences (NCATS), 2010).
Among all 340,000 compounds or so, about 6,900 (2%) were called active. Cut-off read from the data, not from the text of the source: active = inhibition above about 30%; inactive = below that, where a call was filed. This is a selection; strong and weak results do not stand in their true shares. The source gives no active or inactive call for entries shown without one.

Each compound was assayed against D(2) dopamine receptor (Homo sapiens) (UniProt P14416) (assay: HTS Assay for Allosteric Antagonists of the Human D2 Dopamine Receptor: Primary Screen for Antagonists). Settings: HEK293 TREx D2 cells, calcium flux, dopamine EC80; at 10 µM; stronger effect = higher value.
In short: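 In this primary screen, negative modulation is detected by tracking calcium flux after an EC80 dopamine challenge in inducible HEK293 T-REx D2 cells preexposed to test compound for 180 s.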
Note: 0% is about no effect.

UniProt P14416, sequence (P14416 whole entry, looked up): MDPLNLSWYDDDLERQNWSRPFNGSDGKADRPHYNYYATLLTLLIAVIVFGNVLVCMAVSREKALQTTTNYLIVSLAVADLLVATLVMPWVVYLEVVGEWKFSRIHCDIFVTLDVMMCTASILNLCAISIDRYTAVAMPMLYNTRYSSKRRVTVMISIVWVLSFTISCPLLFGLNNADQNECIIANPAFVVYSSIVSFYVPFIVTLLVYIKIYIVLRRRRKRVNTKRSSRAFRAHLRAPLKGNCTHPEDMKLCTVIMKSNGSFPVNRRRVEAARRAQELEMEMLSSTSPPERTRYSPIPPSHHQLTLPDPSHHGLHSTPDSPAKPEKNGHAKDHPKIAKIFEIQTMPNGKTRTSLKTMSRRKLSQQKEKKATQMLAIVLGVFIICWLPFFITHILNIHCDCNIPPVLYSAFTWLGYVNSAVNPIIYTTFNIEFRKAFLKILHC

Structure (SMILES)	inhibition
O=C(O)c1ccc2oc(=O)n(Cc3ccccc3)c2c1	13.6%
CCOC(=O)C1CCN(C(=S)NC2CCCC2)CC1	active: 34.1%
COc1ccc(C2C(=O)N(C3CCC(C)CC3)CC(=O)N2C2CCCCC2)cc1OC (stereo not given)	19.9%
Fc1ccccc1N1CCN(c2ncnc3c2nc2n3CCCCC2)CC1	-0.206%
COc1ccc(CNc2nc3c(-c4ccc(C)cc4)nnn3c3ccccc23)cc1	-6.28%
CCOc1ccc(NC(=O)CC2C(=O)N(c3ccc(F)cc3)C(=O)N2CCc2sccc2C)cc1 (stereo not given)	15.6%
COCCN(Cc1ccco1)C(=O)c1cc2c(Cl)nc3ccc(C)cc3c2s1	-3.21%
CCN(CC)CCCNC(=O)CSc1nc2nc(C)c(Cc3ccccc3C)c(C)n2n1	-2.06%
Cc1ccc2c(CC(=O)N3CCN(c4cccc(Cl)c4)CC3)coc2c1C	11.1%
CC(=O)Nc1ccc(NC(=O)Cn2cc3c(n2)CCCCC3)cc1	-5.33%
Cc1cccc(OCCSc2nc3ccc(NC(=O)COc4ccccc4C)cc3s2)c1	-14.6%
COC(=O)CN1C(=O)CSc2ccc(S(=O)(=O)Nc3ccccc3)cc21	-17.7%
O=C(Cc1cccs1)Nc1ccc(NC(=O)c2ccco2)cc1	active: 30.7%
COc1ccc(/C=C/c2ccncc2)c2ccccc12	active: 44.6%
CCOC(=O)c1c(NC(=O)CSc2cn(CCNC(=O)c3ccc(OC)c(OC)c3)c3ccccc23)sc2c1CCC2	-0.426%
COC(=O)C1CCN(Cc2ccc(OCCCN3CCN(c4ccc([N+](=O)[O-])cc4)CC3)cc2)CC1	active: 74.5%
C=CCc1ccc(OCC(O)CN2CCc3ccccc3C2)c(OC)c1 (stereo not given)	active: 47%
Cc1cn2c(=O)cc(COC(=O)c3cccc(NC(=O)COc4ccccc4)c3)nc2s1	14.4%
Cc1cc(C)n2nc(-c3ccc(Cl)cc3)nc2n1	12.1%
Cc1cccc(N2CCN(c3nc4ccc(C(=O)c5ccccc5)cc4n4cnnc34)CC2C)c1 (stereo not given)	8.68%
CC(C)Oc1ccc(CNC(=O)c2ccc(CS(=O)Cc3ccccc3Cl)o2)cc1 (stereo not given)	3.82%
CCc1cc2c(NC(Cc3c[nH]c4ccccc34)C(=O)O)nc(C)nc2s1 (stereo not given)	active: 34.2%
COc1ccc(NC(=O)c2ccc3c(c2)N(Cc2cccc(Cl)c2)C(=O)c2ccccc2S3(=O)=O)cc1Cl	-2.68%
CCN(CC)C(=O)Cn1ncc2c([nH]c3ccc(C)cc32)c1=O	6.83%

Structure (SMILES)	inhibition
O=C(NC1CCCCC1)C(c1ccncc1)N(C(=O)c1csnn1)c1ccc(F)cc1 (stereo not given)	active: 37%
Cc1ccc(-n2nc(C(=O)NCc3ccc(F)cc3Cl)c3c4ccccc4n(C)c3c2=O)cc1	17.5%
CCOc1ccc(OCC(O)CN2CCc3ccccc3C2)cc1 (stereo not given)	active: 50.1%
FC(F)(F)c1ccc2c(c1)ncc1c(-c3ccccc3)nn(-c3ccccc3)c12	15.1%
COc1ccc(-c2cn3nc(N4CCC(C(=O)NCc5cccc(Cl)c5)CC4)sc3n2)cc1	8.76%
COC(=O)c1ccc(Nc2nc(-c3ccc(C)cc3)nc3ccccc23)cc1	9.02%
CC(=O)N1CCc2c(sc3c2c(=O)n(Cc2ccccc2)c(=O)n3Cc2cccc(Cl)c2)C1	-10.1%
COc1cc(-c2noc(-c3ccc(N4CCCC4)c([N+](=O)[O-])c3)n2)cc(OC)c1OC	-0.982%
CCC(=O)N1CCc2cc(CNC(=O)Cc3ccc(OC)c(OC)c3)ccc21	2.67%
Cc1ccccc1Cn1cnc2c(oc3ccccc32)c1=O	0.472%
CCC1=C(OC(=O)N(CC)CC)N2C(=O)OC(=NCCOC)[C@]2(Cc2ccccc2)[C@H]2C1=CC[C@H]1C(=O)NC(=O)[C@H]12	active: 51.7%
COc1cc(C(=O)N2CCc3c([nH]c4ccccc34)C2c2ccc(F)cc2)cc(OC)c1OC (stereo not given)	-10.7%
CC1=Nc2cc(C(=O)NC3CCC(C)CC3)ccc2Sc2c(C)ccc(C)c21 (stereo not given)	-0.332%
CCOc1ccc(NC(=O)Nc2cccc(C)n2)cc1	-21.4%
Cc1ccc(-n2nc3c(N4CCC(C(=O)NCCc5ccccc5)CC4)nnc(C)c3c2C)cc1	0.0643%
COc1ccc(C)cc1NC(=O)CN(C)S(=O)(=O)c1ccc2c(c1)CCCN2C(C)=O	-16.5%
COCCCN1CN=C(NS(=O)(=O)c2ccc(NC(C)=O)cc2)NC1	-5.26%
CCOC(=O)c1sc2ccccc2c1S(=O)(=O)N1CCN(c2ccccc2F)CC1	-9.15%
COc1ccc(N2Cc3cccc(C(=O)Nc4ccc(C)cc4)c3C2=O)cc1	17.9%
COc1cc(OC)c(NC(=O)Cn2nc(C)n3cccc3c2=O)cc1Cl	8.28%
CCC(=O)N1CCc2cc(S(=O)(=O)N3CCN(c4ccccc4F)CC3)ccc21	7.83%
CC1=C(c2cccc(Cl)c2)S(=O)(=O)NC1=NCc1ccccc1C	3.22%
O=C(NCC(c1ccco1)N1CCN(c2ccccc2)CC1)c1ccco1 (stereo not given)	active: 40.3%
COc1ccc(C)cc1NC(=O)CN1C(=O)CSc2ccc(S(=O)(=O)N3CCCC3)cc21	-14.8%

Structure (SMILES)	inhibition
Cc1ccc(C)c(NC(=O)CCc2nc3cccnc3n2Cc2cccs2)c1	-2.56%
CCN(CC)C(=O)CSc1nc(-c2ccccc2)cc(-c2ccc(OC)cc2)c1C#N	0.939%
COc1cccc(NC(=O)Cn2c(=O)n(-c3ccccc3)c(=O)c3c4c(sc32)CCCC4)c1	-1.16%
Cc1ccc(-c2cc(N)n(Cc3cccc(Cl)c3)n2)cc1	4.35%
Cc1ccccc1-c1ccnc2c(-c3ccc(F)cc3)c(C)nn12	15%
COc1ccc(C2Nc3ccccc3-n3c(-c4ccccc4)c4c(=O)n(C)c(=O)n(C)c4c32)cc1 (stereo not given)	-4.21%
COc1ccccc1-c1noc(-c2ccc(NCc3ccccc3)c([N+](=O)[O-])c2)n1	-8.12%
Cc1cc2nc(NC(=O)c3ccc(S(=O)(=O)N4CCOCC4)cc3)sc2cc1C	3.54%
COc1cccc(CN(C(=O)c2oc3ccc(Br)cc3c2C)C2CCS(=O)(=O)C2)c1 (stereo not given)	3.54%
CCc1ccc(N(C(C)=O)C2C=CS(=O)(=O)C2)cc1 (stereo not given)	active: 37.2%
Cc1nc2ccn(Cc3ccccc3)c(=O)c2cc1C(=O)Nc1ccc(F)cc1Cl	1.87%
COC(=O)CNC(c1ccccc1)c1cc(Br)ccc1NC(=O)c1ccc(Cl)cc1 (stereo not given)	8.26%
Cc1coc2cc3oc(=O)c(CCC(=O)N4CCCCC4)c(C)c3cc12	8.36%
CCC(=O)N1CCc2cc(Br)cc(S(=O)(=O)NCc3cccc(OC)c3)c21	-22.9%
Cn1c2ccc(F)cc2c2nnc(SCCN3CCOCC3)nc21	active: 35.3%
CCOC(=O)c1ccccc1NC(=O)c1c(-c2ccccc2)noc1C	-26.8%
CCN(CC)S(=O)(=O)c1ccc2c(c1)c(=O)c(C(=O)NCCc1ccc(OC)c(OC)c1)cn2C	-9.36%
O=C(Cn1cc(SCc2ccccc2)c2ccccc21)N1CCCCC1	5.6%
COc1ccc(-c2nc(C)c(CCNC(=O)C(=O)Nc3c(C)cccc3C)s2)cc1OC	-1.16%
CCc1ccc(CNC(=O)CN(c2ccc(C)cc2)S(=O)(=O)N(C)C)cc1	8.59%
COc1ccc(OC)c(CCNC(=O)C2CCN(c3ncnc4c3nc3n4CCCCC3)CC2)c1	1.82%
N#Cc1c(-n2ncnc2-c2ccc(Br)cc2)sc2c1CCCCC2	-1.3%
CSc1ccc(CNC(=O)C2CCN(c3nnc(-n4cccc4CNc4ccc(C)cc4)s3)CC2)cc1	13%
COc1ccc(OC)c(NC(=O)CCc2c(C)nn(-c3ccc(N4CCCC4)nn3)c2C)c1	-18.6%

Structure (SMILES)	inhibition
Cc1ccc(N2CC(NC(=O)c3ccc(S(=O)(=O)N4CCCC4)cc3)CC2=O)cc1 (stereo not given)	-12.1%
CC(C)(C)OC(=O)N1CCC(c2c(C(=O)NCCCN3CCc4ccccc4C3)cnn2-c2ccccc2)CC1	23.7%
O=C(Nc1ccc2c(c1)CCCN2C(=O)c1cccs1)c1c(F)cccc1F	12.4%
O=C1CC(=O)Nc2cc(S(=O)(=O)Nc3cccc(C(F)(F)F)c3)ccc2N1	active: 30.5%
Cc1ccc(NC(=O)c2cn3c4c(ccc(Cl)c4c2=O)OC(C)C3)c(C)c1 (stereo not given)	15.2%
O=C(CCc1cn(Cc2ccccc2Cl)c2ccccc12)NC1CCCCC1	12.7%
C/C(N)=C(/C#N)C(=O)COC(=O)c1cc(-c2ccc(Br)cc2)nc2ccccc12	active: 46.8%
Cc1c(C(=O)N2CCC(C)CC2)c(S(=O)(=O)NCc2ccc(Br)cc2)c(C)n1C	-12%
CC(C)c1ccc(NC(=O)C2CCN(c3nc(-c4ccc(C(C)C)cc4)no3)CC2)cc1	3.47%
CCCCc1nc2ccccc2n2c(-c3ccc(OC)cc3)c3c(=O)n(C)c(=O)n(C)c3c12	2.84%
COc1ccc(CNC(=O)c2cc(-c3cccc(Cl)c3)on2)cc1	4.62%
Cc1ccccc1Nc1c(-c2ccc(Cl)s2)nc2c(C)cccn12	9.03%
Cc1nc2sccn2c(=O)c1CCN1CCC(=C(c2ccc(F)cc2)c2ccc(F)cc2)CC1	active: 78.3%
COc1ccc(-n2ncc(C(=O)N3CCN(c4ncccn4)CC3)c2C2CCN(C(=O)OC(C)(C)C)CC2)cc1	9.88%
Cc1cc(C)cc(NC(=O)CCCN2C(=O)COc3ccc(C)cc32)c1	19.7%
O=C(COc1ccc([N+](=O)[O-])cc1)NCC1(N2CCOCC2)CCCCC1	-12.6%
Nc1cc(=O)nc(SCC(=O)Nc2ccc(F)cc2)n1-c1ccccc1Cl	-1.54%
COc1ccc(C)cc1NC(=O)C1CCN(S(=O)(=O)c2ccc3[nH]c4c(c3c2)CCCCC4)CC1	0.899%
Cc1c(C)c2c(OCC(=O)N[C@@H](C(=O)O)c3ccccc3)cc3c(c2oc1=O)CCC(C)(C)O3	active: 30.5%
CC(=O)c1cccc(NC(=O)CSc2nc(=O)n(Cc3cccnc3)c3c2CCC3)c1	20.1%
Oc1c(C(c2ccccc2F)N2CCCCC2)sc2nc(-c3ccco3)nn12 (stereo not given)	3.43%
O=C(CCCn1c(=O)c2ccccc2n(Cc2ccc(F)cc2Cl)c1=O)NCCc1ccc(Cl)cc1	22.7%
COC(=O)c1ccccc1NC(=O)c1nc(S(=O)(=O)Cc2cccc(C)c2)ncc1Cl	13.2%
